Laboratory results published in the supplement of paper PMC8728848.
The list shows a part of the results.

Experiments:
Experiment in all cases: glycan array binding signal (z-score within array); higher = stronger binding
Conditions in all cases: glycan notation: IUPAC condensed, linker removed
[1] = target: Fuc(a1-2)Gal(b1-4)[Fuc(a1-3)]GlcNAc
How it was run: (§1)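 Arrays were curated from the Consortium for Functional Glycomics database, 3228 in total, and kept only where the protein sequence was available. Binding is expressed as a within-array Z-score. This score was averaged across arrays of the same protein sequence at different concentrations or buffers and across linkers, and negative values can be read as non-binding.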

[2] = target: Fuc(a1-2)Gal(b1-4)[Fuc(a1-3)]GlcNAc(b1-2)Man(a1-3)[Fuc(a1-2)Gal(b1-4)[Fuc(a1-3)]GlcNAc(b1-2)Man(a1-6)]Man(b1-4)GlcNAc(b1-4)[Fuc(a1-6)]GlcNAc
How it was run: as §1

[3] = target: Fuc(a1-2)Gal(b1-4)[Fuc(a1-3)]GlcNAc(b1-2)[Fuc(a1-2)Gal(b1-4)[Fuc(a1-3)]GlcNAc(b1-4)]Man(a1-3)[Fuc(a1-2)Gal(b1-4)[Fuc(a1-3)]GlcNAc(b1-2)Man(a1-6)]Man(b1-4)GlcNAc(b1-4)GlcNAc
How it was run: as §1

[4] = target: Fuc(a1-2)Gal(b1-4)[Fuc(a1-3)]GlcNAc(b1-3)Gal(b1-4)[Fuc(a1-3)]GlcNAc
How it was run: as §1

[5] = target: Fuc(a1-2)Gal(b1-4)[Fuc(a1-3)]GlcNAc(b1-3)Gal(b1-4)[Fuc(a1-3)]GlcNAc(b1-3)Gal(b1-4)[Fuc(a1-3)]GlcNAc
How it was run: as §1

[6] = target: Fuc(a1-2)Gal(b1-4)[Fuc(a1-3)]GlcNAc(b1-3)GalNAc
How it was run: as §1

[7] = target: Fuc(a1-2)Gal(b1-4)[Fuc(a1-3)]GlcNAc(b1-3)[Neu5Ac(a2-6)Gal(b1-4)GlcNAc(b1-6)]Gal(b1-4)Glc
How it was run: as §1

[8] = target: Fuc(a1-2)Gal3S(b1-4)GlcNAc
How it was run: as §1

[9] = target: Fuc(a1-2)Gal6S(b1-3)GlcNAc
How it was run: as §1

[10] = target: Fuc(a1-2)Gal6S(b1-3)GlcNAc6S
How it was run: as §1

Fuc(a1-2)Gal6S(b1-4)Glc = target: Fuc(a1-2)Gal6S(b1-4)Glc
How it was run: as §1

[11] = target: Fuc(a1-2)Gal6S(b1-4)Glc6S
How it was run: as §1

Fuc(a1-2)[Gal(a1-3)]Gal = target: Fuc(a1-2)[Gal(a1-3)]Gal
How it was run: as §1

[12] = target: Fuc(a1-2)[Gal(a1-3)]Gal(b1-3)GalNAc
How it was run: as §1

[13] = target: Fuc(a1-2)[Gal(a1-3)]Gal(b1-3)GalNAc(b1-3)Gal(a1-4)Gal(b1-4)Glc
How it was run: as §1

[14] = target: Fuc(a1-2)[Gal(a1-3)]Gal(b1-3)GlcNAc
How it was run: as §1

[15] = target: Fuc(a1-2)[Gal(a1-3)]Gal(b1-3)GlcNAc(b1-2)Man(a1-3)[Fuc(a1-2)[Gal(a1-3)]Gal(b1-3)GlcNAc(b1-2)Man(a1-6)]Man(b1-4)GlcNAc(b1-4)GlcNAc
How it was run: as §1

[16] = target: Fuc(a1-2)[Gal(a1-3)]Gal(b1-3)GlcNAc(b1-2)Man(a1-3)[Fuc(a1-2)[Gal(a1-3)]Gal(b1-3)GlcNAc(b1-2)Man(a1-6)]Man(b1-4)GlcNAc(b1-4)[Fuc(a1-6)]GlcNAc
How it was run: as §1

[17] = target: Fuc(a1-2)[Gal(a1-3)]Gal(b1-3)GlcNAc(b1-3)GalNAc
How it was run: as §1

[18] = target: Fuc(a1-2)[Gal(a1-3)]Gal(b1-3)GlcNAc(b1-6)GalNAc
How it was run: as §1

[19] = target: Fuc(a1-2)[Gal(a1-3)]Gal(b1-4)Glc
How it was run: as §1

[20] = target: Fuc(a1-2)[Gal(a1-3)]Gal(b1-4)GlcNAc
How it was run: as §1

[21] = target: Fuc(a1-2)[Gal(a1-3)]Gal(b1-4)GlcNAc(b1-2)Man
How it was run: as §1

[22] = target: Fuc(a1-2)[Gal(a1-3)]Gal(b1-4)GlcNAc(b1-2)Man(a1-3)[Fuc(a1-2)[Gal(a1-3)]Gal(b1-4)GlcNAc(b1-2)Man(a1-6)]Man(b1-4)GlcNAc(b1-4)GlcNAc
How it was run: as §1

[23] = target: Fuc(a1-2)[Gal(a1-3)]Gal(b1-4)GlcNAc(b1-2)Man(a1-3)[Fuc(a1-2)[Gal(a1-3)]Gal(b1-4)GlcNAc(b1-2)Man(a1-6)]Man(b1-4)GlcNAc(b1-4)[Fuc(a1-6)]GlcNAc
How it was run: as §1

[24] = target: Fuc(a1-2)[Gal(a1-3)]Gal(b1-4)GlcNAc(b1-3)GalNAc
How it was run: as §1

[25] = target: Fuc(a1-2)[Gal(a1-3)]Gal(b1-4)GlcNAc(b1-6)GalNAc
How it was run: as §1

[26] = target: Fuc(a1-2)[Gal(a1-3)]Gal(b1-4)[Fuc(a1-3)]Glc
How it was run: as §1

[27] = target: Fuc(a1-2)[Gal(a1-3)]Gal(b1-4)[Fuc(a1-3)]GlcNAc
How it was run: as §1

[28] = target: Fuc(a1-2)[Gal(a1-3)]Gal(b1-4)[Fuc(a1-3)]GlcNAc(b1-3)GalNAc
How it was run: as §1

[29] = target: Fuc(a1-2)[Gal(a1-4)]Gal(b1-4)GlcNAc
How it was run: as §1

[30] = target: Fuc(a1-2)[GalNAc(a1-3)]Gal
How it was run: as §1

[31] = target: Fuc(a1-2)[GalNAc(a1-3)]Gal(b1-3)GalNAc(a1-3)[Fuc(a1-2)]Gal(b1-4)GlcNAc
How it was run: as §1

[32] = target: Fuc(a1-2)[GalNAc(a1-3)]Gal(b1-3)GalNAc(b1-3)Gal(a1-4)Gal(b1-4)Glc
How it was run: as §1

[33] = target: Fuc(a1-2)[GalNAc(a1-3)]Gal(b1-3)GlcNAc
How it was run: as §1

[34] = target: Fuc(a1-2)[GalNAc(a1-3)]Gal(b1-3)GlcNAc(b1-2)Man(a1-3)[Fuc(a1-2)[GalNAc(a1-3)]Gal(b1-3)GlcNAc(b1-2)Man(a1-6)]Man(b1-4)GlcNAc(b1-4)GlcNAc
How it was run: as §1

[35] = target: Fuc(a1-2)[GalNAc(a1-3)]Gal(b1-3)GlcNAc(b1-2)Man(a1-3)[Fuc(a1-2)[GalNAc(a1-3)]Gal(b1-3)GlcNAc(b1-2)Man(a1-6)]Man(b1-4)GlcNAc(b1-4)[Fuc(a1-6)]GlcNAc
How it was run: as §1

[36] = target: Fuc(a1-2)[GalNAc(a1-3)]Gal(b1-3)GlcNAc(b1-3)GalNAc
How it was run: as §1

B1: mCC1-Hexahis-Precomplexed (Mus musculus), P31809 (protein)
chain: MELASAHLHKGQVPWGGLLLTASLLASWSPATTAEVTIEAVPPQVAEDNNVLLLVHNLPLALGAFAWYKGNTTAIDKEIARFVPNSNMNFTGQAYSGREIIYSNGSLLFQMITMKDMGVYTLDMTDENYRRTQATVRFHVHPILLKPNITSNNSNPVEGDDSVSLTCDSYTDPDNINYLWSRNGESLSEGDRLKLSEGNRTLTLLNVTRNDTGPYVCETRNPVSVNRSDPFSLNIIYGPDTPIISPSDIYLHPGSNLNLSCHAASNPPAQYFWLINEKPHASSQELFIPNITTNNSGTYTCFVNNSVTGLSRTTVKNITVLEPVTQPFLQVTNTTVKELDSVTLTCLSNDIGANIQWLFNSQSLQLTERMTLSQNNSILRIDPIKREDAGEYQCEISNPVSVRRSNSIKLDIIFDPTQGGLSDGHHHHHH
glycan array binding signal (z-score) [1]: -0.226
glycan array binding signal (z-score) [2]: 0.05
glycan array binding signal (z-score) [3]: -0.254
glycan array binding signal (z-score) [4]: -0.251
glycan array binding signal (z-score) [5]: -0.097
glycan array binding signal (z-score) [6]: -0.04
glycan array binding signal (z-score) [7]: -0.102
glycan array binding signal (z-score) [8]: -0.219
glycan array binding signal (z-score) [9]: -0.21
glycan array binding signal (z-score) [10]: 1.11
glycan array binding signal (z-score) (Fuc(a1-2)Gal6S(b1-4)Glc): -0.247
glycan array binding signal (z-score) [11]: -0.128
glycan array binding signal (z-score) (Fuc(a1-2)[Gal(a1-3)]Gal): -0.192
glycan array binding signal (z-score) [12]: -0.087
glycan array binding signal (z-score) [13]: -0.228
glycan array binding signal (z-score) [14]: 0.296
glycan array binding signal (z-score) [15]: -0.264
glycan array binding signal (z-score) [16]: -0.02
glycan array binding signal (z-score) [17]: -0.171
glycan array binding signal (z-score) [18]: -0.18
glycan array binding signal (z-score) [19]: -0.207
glycan array binding signal (z-score) [20]: -0.203
glycan array binding signal (z-score) [21]: -0.059
glycan array binding signal (z-score) [22]: -0.106
glycan array binding signal (z-score) [23]: -0.156
glycan array binding signal (z-score) [24]: -0.17
glycan array binding signal (z-score) [25]: -0.213
glycan array binding signal (z-score) [26]: -0.112
glycan array binding signal (z-score) [27]: 0.002
glycan array binding signal (z-score) [28]: -0.141
glycan array binding signal (z-score) [29]: -0.269
glycan array binding signal (z-score) [30]: -0.177
glycan array binding signal (z-score) [31]: -0.156
glycan array binding signal (z-score) [32]: -0.256
glycan array binding signal (z-score) [33]: -0.277
glycan array binding signal (z-score) [34]: -0.212
glycan array binding signal (z-score) [35]: 0.006
glycan array binding signal (z-score) [36]: -0.203
